According to a collection of fitness landscapes (doi:10.1126/science.1257360):
This is one part of the list.

B1: PhoQ; a variant is named by its letters at X, in order, P23837 (parent)
chain: MKKLLRLFFPLSLRVRFLLATAAVVLVLSLAYGMVALIGYSVSFDKTTFRLLRGESNLFYTLAKWENNKLHVELPENIDKQSPTMTLIYDENGQLLWAQRDVPWLMKMIQPDWLKSNGFHEIEADVNDTSLLLSGDHSIQQQLQEVREDDDDAEMTHSVAVNVYPATSRMPKLTIVVVDTIPVELKSSYMVWSWFIYVLSANLLLVIPLLWVAAWWSLRPIEALAKEVRELEEHNRELLNPATTRELTSLVRNLNRLLKSERERYDKYRTTLTDLTHSLKTPLXXLQXXLRSLRSEKMSVSDAEPVMLEQISRISQQIGYYLHRASMRGGTLLSRELHPVAPLLDNLTSALNKVYQRKGVNISLDISPEISFVGEQNDFVEVMGNVLDNACKYCLEFVEISARQTDEHLYIVVEDDGPGIPLSKREVIFDRGQRVDTLRPGQGVGLAVAREITEQYEGKIVAGESMLGGARMEVIFGRQHSAPKDE

Variants of: B1
Test: enrichment ratio after two sorts for PhoP signalling (ratio (wild type AVST 3.29)); higher = more functional
Conditions: with PhoP (E. coli)

| Variant | enrichment ratio |
| --- | --- |
| VMEL | ≤ 0.25 |
| QHSS | ≤ 0.25 |
| QASE | 1.94 |
| KCDM | ≤ 0.25 |
| VMPN | ≤ 0.25 |
| NKYC | ≤ 0.25 |
| LNYD | ≤ 0.25 |
| TGQC | ≤ 0.25 |
| YILY | ≤ 0.25 |
| WPPC | ≤ 0.25 |
| PTHT | ≤ 0.25 |
| WKRP | ≤ 0.25 |
| IDHK | ≤ 0.25 |
| YSFW | ≤ 0.25 |
| HSGF | 0.251 |
| SGYK | ≤ 0.25 |
| MFAR | ≤ 0.25 |
| RIKT | ≤ 0.25 |
| SWHG | ≤ 0.25 |
| IQPT | ≤ 0.25 |
| DHDG | ≤ 0.25 |

| Variant | enrichment ratio |
| --- | --- |
| ARYS | ≤ 0.25 |
| KWTH | ≤ 0.25 |
| QIWD | ≤ 0.25 |
| LKVI | ≤ 0.25 |
| FDCH | ≤ 0.25 |
| TRCW | ≤ 0.25 |
| MQVD | ≤ 0.25 |
| LNFR | ≤ 0.25 |
| NSMS | ≤ 0.25 |
| IYWC | ≤ 0.25 |
| YWDP | ≤ 0.25 |
| GFNV | ≤ 0.25 |
| AYFM | ≤ 0.25 |
| EPRQ | ≤ 0.25 |
| HGAD | ≤ 0.25 |
| SMSE | 5.68 |
| EVFG | ≤ 0.25 |
| LYLA | ≤ 0.25 |
| MQAY | ≤ 0.25 |
| FFSA | ≤ 0.25 |
| KSTG | ≤ 0.25 |

| Variant | enrichment ratio |
| --- | --- |
| FPTC | ≤ 0.25 |
| EIGP | ≤ 0.25 |
| DTWV | ≤ 0.25 |
| RSGT | ≤ 0.25 |
| RNVC | ≤ 0.25 |
| NRTP | ≤ 0.25 |
| IPTC | ≤ 0.25 |
| LWLP | 0.426 |
| LLHL | ≤ 0.25 |
| DCVS | ≤ 0.25 |
| VAHT | ≤ 0.25 |
| MHKA | ≤ 0.25 |
| PFTP | ≤ 0.25 |
| TGFA | 1.36 |
| STCN | 8.56 |
| GHNL | ≤ 0.25 |
| VCWT | ≤ 0.25 |
| ALME | 7.51 |
| ARRP | ≤ 0.25 |
| YVVT | ≤ 0.25 |
| PKRL | ≤ 0.25 |

| Variant | enrichment ratio |
| --- | --- |
| FELQ | 8.46 |
| THPI | ≤ 0.25 |
| ICVV | ≤ 0.25 |
| TSNQ | 9.86 |
| WHGN | ≤ 0.25 |
| QKGH | ≤ 0.25 |
| MSTS | 0.73 |
| PVHY | ≤ 0.25 |
| ESDN | ≤ 0.25 |
| GEFG | ≤ 0.25 |
| QYDY | ≤ 0.25 |
| EQES | ≤ 0.25 |
| FPVK | ≤ 0.25 |
| WKAH | ≤ 0.25 |
| IDAC | ≤ 0.25 |
| APTP | ≤ 0.25 |
| IYSQ | ≤ 0.25 |
| DDMS | ≤ 0.25 |
| ALCE | 16.1 |
| NHHT | ≤ 0.25 |
| MIGT | ≤ 0.25 |
